Screen size: about 310,000 compounds; about 14,000 (4.5%) showed an effect of 50% or more. Effects have a minus sign here. The list shows a part of the results.
target: human ether-à-go-go-related gene (hERG) potassium channel (human, UniProt Q12809); experiment: primary screen, population patch clamp on CHO cells stably expressing hERG
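Also: peak tail current of the secondary pulse compared with the same well before compound.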

human ether-à-go-go-related gene (hERG) potassium channel, sequence (Q12809 whole entry, looked up): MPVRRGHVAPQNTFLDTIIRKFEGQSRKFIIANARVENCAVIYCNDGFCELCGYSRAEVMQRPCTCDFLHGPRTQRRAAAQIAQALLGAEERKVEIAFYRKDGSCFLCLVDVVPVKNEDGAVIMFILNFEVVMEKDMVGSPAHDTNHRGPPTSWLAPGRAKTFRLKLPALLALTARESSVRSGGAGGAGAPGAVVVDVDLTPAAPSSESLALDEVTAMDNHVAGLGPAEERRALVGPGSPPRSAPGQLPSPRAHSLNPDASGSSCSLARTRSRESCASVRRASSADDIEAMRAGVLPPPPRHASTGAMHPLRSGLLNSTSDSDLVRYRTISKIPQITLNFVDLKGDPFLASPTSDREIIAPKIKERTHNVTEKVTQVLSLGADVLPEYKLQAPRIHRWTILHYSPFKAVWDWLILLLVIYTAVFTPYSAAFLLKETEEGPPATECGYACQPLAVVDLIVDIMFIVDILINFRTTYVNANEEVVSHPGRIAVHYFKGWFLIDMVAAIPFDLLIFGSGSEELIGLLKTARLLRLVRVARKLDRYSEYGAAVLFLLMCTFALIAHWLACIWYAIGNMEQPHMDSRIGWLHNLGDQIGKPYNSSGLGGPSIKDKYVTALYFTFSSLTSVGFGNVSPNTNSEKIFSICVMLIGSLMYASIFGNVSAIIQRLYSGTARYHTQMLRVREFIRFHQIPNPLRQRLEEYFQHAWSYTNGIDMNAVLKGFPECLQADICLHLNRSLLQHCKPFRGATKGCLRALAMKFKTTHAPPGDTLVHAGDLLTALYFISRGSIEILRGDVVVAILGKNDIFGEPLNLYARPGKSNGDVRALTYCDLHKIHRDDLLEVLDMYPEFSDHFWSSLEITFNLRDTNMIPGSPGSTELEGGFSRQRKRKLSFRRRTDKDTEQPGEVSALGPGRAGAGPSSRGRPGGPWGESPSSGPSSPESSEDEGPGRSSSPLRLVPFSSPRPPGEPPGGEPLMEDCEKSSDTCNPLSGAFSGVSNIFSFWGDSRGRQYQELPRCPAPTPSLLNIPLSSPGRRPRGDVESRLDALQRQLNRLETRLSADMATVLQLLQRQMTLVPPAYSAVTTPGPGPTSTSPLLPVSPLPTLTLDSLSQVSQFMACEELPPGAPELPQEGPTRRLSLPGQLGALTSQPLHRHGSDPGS

Row | SMILES | hERG current change (%, negative = inhibition) at 10uM [%]
1 | Cc1c(C(=O)N2CCN(c3ccccc3)CC2)sc2ncnc(N3CCC(C)CC3)c12 | -29.9
2 | COc1ccc(N2CCN(S(=O)(=O)c3ccc(OC)cc3)CC2)cc1 | 5.01
3 | COc1ccc(C2=NOC(Cn3nc(C(=O)NCc4ccco4)cc3-c3ccccc3)C2)cc1 (stereo not shown) | -68.2
4 | CCCCC12CN3CC(C)(CN(C1)C3c1ccc([N+](=O)[O-])o1)C2=O (stereo not shown) | -49.5
5 | O=C(Nc1cccnc1)c1c(O)c2c(n(Cc3ccccc3)c1=O)CCCC2 | 2.61
6 | CC(=O)NC(Cc1cccc(F)c1)C(=O)NC1CCN(c2ncccc2[N+](=O)[O-])CC1 (stereo not shown) | 19.7
7 | COC(=O)C1=C(c2ccc(F)cc2F)C[C@@H]2CC[C@H]1N2C(=O)NCCOc1ccc(OC)cc1 | -14
8 | CC(Oc1ccc2ccccc2c1)C(=O)NNC(=O)Nc1ccccc1F (stereo not shown) | 19.5
9 | CCCCCNC(=O)c1c[nH]c2ccc(S(=O)(=O)N3CCC4(CC3)OCCO4)cc2c1=O | 9.75
10 | O=C(Nc1ccc(F)c(S(=O)(=O)N2CCOCC2)c1)C1CCCCC1 | 5.03
11 | CCCc1ccc(Oc2cc(Cl)nc(N)n2)cc1 | -6.28
12 | Cc1ccc(OCCCC(=O)NNC(=O)c2ccncc2)cc1 | -0.766
13 | CC(CN1CCCC1)OC(=O)c1ccc(Br)cc1.Cl (stereo not shown) | -25.2
14 | COc1ccc(OC)c(C2CC(=O)c3c([nH]c(C(=O)OCC4CCCO4)c3C)C2)c1 (stereo not shown) | 3.54
15 | COc1ccc(NC(=O)Nc2ccc3nsnc3c2)cc1 | 2.7
16 | CC(=O)N1N=C2C3CCN(CC3)C2C1c1ccc(F)cc1 (stereo not shown) | 1.27
17 | N#C/C(=C\c1ccc(OCC(N)=O)cc1)C(=O)NC1CC1 | 1.35
18 | CC(Oc1ccccc1)C(=O)N1CCCc2ccccc21 (stereo not shown) | -12.6
19 | COC(=O)c1ccc(C(=O)N2CCCC(N3CCN(c4ccccc4)CC3)C2)nc1 (stereo not shown) | -22.4
20 | O=C(NCc1ccc(F)cc1)N1CCN(S(=O)(=O)c2ccccc2F)CC1 | 9.1
21 | Cc1cccc(N2CCN(C(=O)c3cc(=O)[nH]c4ccccc34)CC2)c1C | -15.1
22 | O=C(NCC(F)(F)F)Nc1ncccn1 | 17.1

Row | SMILES | hERG current change (%, negative = inhibition) at 10uM [%]
23 | Cn1nnnc1SCC(=O)Nc1ccccc1C(=O)NC1CC1 | 7.04
24 | Cc1cc(S(=O)(=O)N2CCCc3ccccc32)ccc1-n1cnnn1 | -7
25 | COc1ccc(CCNC(=O)COc2ccc3c(C)cc(=O)oc3c2)cc1OC | 13.7
26 | O=C(CCc1c[nH]c2ccccc12)NCCc1ccccc1 | 8.67
27 | Cn1c(=N)c(S(=O)(=O)c2ccc(F)cc2)cc2c(=O)n3ccccc3nc21 | 1.33
28 | Cc1c(C)c2ccc(OCC(=O)N3CCOCC3)c(C)c2oc1=O | -20.3
29 | CCc1ccc(CNC(=O)C2CCC(=O)N(CCc3ccc(Cl)cc3)C2)nc1 (stereo not shown) | -67
30 | CCOc1ccc(-n2cnc3sc(C)c(C)c3c2=O)cc1 | 23.8
31 | Cc1cc(SC(C)C(=O)NCC(=O)Nc2ccc(F)c(F)c2F)nc2ccccc12 (stereo not shown) | 0.057
32 | COc1ccc(CCc2nnc(CCC(=O)NCc3cnn(-c4ccccc4C)c3)o2)cc1 | 0.419
33 | O=C(NC1CCN(Cc2ccccc2)CC1)c1ccccc1 | -33.3
34 | COC(=O)/C(=C/c1ccccc1)NC(=O)c1ccco1 | 4.23
35 | O=C(COc1ccccc1)N=C1SC2CS(=O)(=O)CC2N1c1ccc(F)cc1F (stereo not shown) | 16.1
36 | CCOC(=O)CSc1ncc(-c2ccccc2)nn1 | -6.58
37 | CC1CCN(C(=O)CSc2nnc(Cc3ccccc3)o2)CC1 | -12.2
38 | COc1cccc(C2/C(=C(/O)c3ccc(C)cc3)C(=O)C(=O)N2Cc2ccco2)c1 (stereo not shown) | 3.57
39 | COc1c(-c2ccc([N+](=O)[O-])cc2[N+](=O)[O-])c(=O)n(C)c(=O)n1C | 13.6
40 | Cc1ccc(O)c(/C=N/NC(=O)c2[nH]ncc2Br)c1 | 15.3
41 | CCOC(=O)C(C)Sc1nnc(Cn2c(=O)sc3ccccc32)n1-c1ccccc1 (stereo not shown) | -14
42 | CCOc1ccc(NC(=O)c2cc3n(n2)C(C(F)(F)F)CC(c2ccco2)N3)cc1 (stereo not shown) | 22.5
43 | COc1ccccc1Nc1ncc(C(C)=O)c(C)n1 | 10.9

— article PMC4336329 (PLoS ONE, 2015)
